Molecules are shown by their SMILES. In all, about 310,000 compounds went through this assay and about 14,000 (4.5%) showed an effect of 50% or more. Effects have a minus sign here. Some of the results follow.
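Note: peak tail current of the secondary pulse compared with the same well before compound.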

In this experiment the target is human ether-à-go-go-related gene (hERG) potassium channel (human, UniProt Q12809). Put plainly: primary screen, population patch clamp on CHO cells stably expressing hERG.
Sequence of human ether-à-go-go-related gene (hERG) potassium channel (Q12809 whole entry, looked up): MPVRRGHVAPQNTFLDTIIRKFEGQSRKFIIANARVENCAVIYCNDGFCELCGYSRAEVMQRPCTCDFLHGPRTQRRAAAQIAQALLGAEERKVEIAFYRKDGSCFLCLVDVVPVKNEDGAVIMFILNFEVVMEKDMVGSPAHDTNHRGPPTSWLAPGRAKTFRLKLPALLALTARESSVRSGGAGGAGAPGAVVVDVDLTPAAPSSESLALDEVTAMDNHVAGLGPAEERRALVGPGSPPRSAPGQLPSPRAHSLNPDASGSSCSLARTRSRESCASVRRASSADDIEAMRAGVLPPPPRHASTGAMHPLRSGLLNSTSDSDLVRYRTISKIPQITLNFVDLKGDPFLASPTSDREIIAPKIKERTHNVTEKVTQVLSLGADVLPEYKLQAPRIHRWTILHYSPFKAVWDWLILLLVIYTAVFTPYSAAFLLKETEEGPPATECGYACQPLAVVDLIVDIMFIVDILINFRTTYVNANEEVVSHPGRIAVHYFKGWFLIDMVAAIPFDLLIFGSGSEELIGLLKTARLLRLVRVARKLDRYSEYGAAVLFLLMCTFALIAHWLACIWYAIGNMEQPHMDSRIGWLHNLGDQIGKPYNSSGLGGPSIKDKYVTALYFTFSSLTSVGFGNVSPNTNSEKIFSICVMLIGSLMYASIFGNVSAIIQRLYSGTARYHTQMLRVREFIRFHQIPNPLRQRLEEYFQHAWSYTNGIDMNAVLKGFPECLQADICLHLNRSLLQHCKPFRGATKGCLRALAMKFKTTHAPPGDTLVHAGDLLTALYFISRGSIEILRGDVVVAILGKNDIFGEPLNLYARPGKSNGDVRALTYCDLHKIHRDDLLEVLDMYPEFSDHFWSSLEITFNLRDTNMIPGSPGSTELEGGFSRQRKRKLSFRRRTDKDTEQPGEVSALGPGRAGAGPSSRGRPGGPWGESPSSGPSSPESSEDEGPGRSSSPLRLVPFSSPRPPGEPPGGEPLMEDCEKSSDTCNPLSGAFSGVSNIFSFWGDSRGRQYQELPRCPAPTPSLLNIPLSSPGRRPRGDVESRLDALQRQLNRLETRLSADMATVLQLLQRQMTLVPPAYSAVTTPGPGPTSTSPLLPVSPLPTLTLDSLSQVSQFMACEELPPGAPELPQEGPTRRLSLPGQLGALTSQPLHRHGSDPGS
As for `O=C(NCc1ccccc1)Oc1cccc(Cl)c1`, the “hERG current change (%, negative = inhibition) at 10uM” value was 11.3%. Take `CCOC(=O)NN1C(=O)c2ccccc2NC1c1ccccc1` (centres unmarked): the “hERG current change (%, negative = inhibition) at 10uM” value is -6.67%. Under `COc1ccccc1COn1c(=O)c(-c2ccco2)[n+]([O-])c2ccccc21` stands 5.96%; under `O=C(Cn1nnc(-c2ccccc2F)n1)Nc1ccc2c(c1)OCO2`, 16.6%. The result for `Cc1ccc(S(=O)(=O)Nc2csc(C)c2C(=O)O)cc1` reads 21.7%; that for `O=C(NCCCNC(=O)c1ccc(Cl)cc1Cl)c1cnccn1`, -0.517%. As for `Cc1nn(-c2ccccc2)c2sc(C(=O)N(CC(=O)NC(C)(C)C)Cc3ccco3)cc12`, the “hERG current change (%, negative = inhibition) at 10uM” value is given as -21.3%. The result for `S=C(NCCCc1ccccc1)NC1CCCCC1` reads -4.79%; that for `Fc1cccc(F)c1-n1c(CN2CCCC2)csc1=S`, -2.37%; that for `CC(=O)c1ccc(N2CCN(S(=O)(=O)c3cccc4nonc34)CC2)cc1`, 0.735%. The result for `COC(=O)C1=C(c2ccc(C(C)=O)cc2)C[C@@H]2CC[C@H]1N2C(=O)N1CCC(O)CC1` reads 9.89%.

With `O=P(OC1CCS(=O)(=O)C1)(c1ccccc1)c1ccccc1` (centres unmarked), the “hERG current change (%, negative = inhibition) at 10uM” value is 11.2%. The result for `CC(CCn1cccn1)NC(=O)c1cc(COc2ccc(F)cc2F)on1` (centres unmarked) reads -19.5%; that for `O=C(O)C1CC1(c1ccccc1)c1ccccc1` (centres unmarked), 17.7%. With `Cc1ccc(C(=O)NCC(=O)NCC(=O)OCC(=O)c2ccc(F)cc2)cc1`, the “hERG current change (%, negative = inhibition) at 10uM” value is recorded as -4.81%. The result for `CCc1n[nH]c(=S)n1N=C1CCC(C)CC1` (centres unmarked) reads 19.1%; that for `CC(Sc1nc2ccccc2c(=O)n1C)C(=O)N(C)C1CCCCC1` (centres unmarked), -37.4%; that for `CC1CCN(CCC(=O)Nc2ccccc2)CC1`, -10.1%. The result for `O=c1c2c3c(sc2nc2n1CCCC2)CCCC3` reads -7.19%.

As for `Cc1ccc(S(=O)(=O)N2CCOCC2)cc1C(=O)NCc1cccnc1`, the “hERG current change (%, negative = inhibition) at 10uM” value was 17.5%.

Regarding `O=c1cc(NCc2ccccc2)c2ccccc2o1`, the “hERG current change (%, negative = inhibition) at 10uM” value is reported as -5.54%. For `COc1cc(/C=C/c2nnc3c4ccccc4ncn23)cc(OC)c1OC`, the “hERG current change (%, negative = inhibition) at 10uM” value was -16.2%. The result for `O=C1CCCN1CCCNc1nc2c(S(=O)(=O)c3ccc(Br)cc3)nnn2c2ccccc12` reads 9.4%; that for `Cc1ccc(C(=O)NCC2CCCO2)cc1[N+](=O)[O-]` (centres unmarked), 4.29%; that for `CCN(CC)CCCN(Cc1cc2cc(OC)c(OC)cc2[nH]c1=O)C(=O)Nc1ccccc1`, -13.8%. Regarding `CC(C)N=c1cc2n(-c3ccc(Cl)cc3)c3ccccc3nc-2cc1Nc1ccc(Cl)cc1`, the “hERG current change (%, negative = inhibition) at 10uM” value stood at 35.9%. `Cc1ccc(-c2c(C)n([O-])c3c([n+]2=O)CCCC3)cc1`: the “hERG current change (%, negative = inhibition) at 10uM” value stood at 51.9%. The result for `COc1ccc(C(C)NCCC(c2ccc(OC(C)C)cc2)c2ccccc2OC)cc1` (centres unmarked) reads -64.2%; that for `CCN(C(=O)CO/N=C/c1ccc(OC)cc1OC)c1c(N)n(Cc2ccccc2)c(=O)[nH]c1=O`, -0.661%; that for `CCCCn1cc2c(c1-c1cccc(C)c1)c(=O)n(C)c(=O)n2C`, -1.91%. Under `CC(=O)NC1=NC(=O)/C(=C/c2cn(C(C)=O)nc2-c2ccccc2)S1` stands -12.1%. Under `COc1ccccc1NC(=O)c1ccc2c(O)c(S(=O)(=O)c3ccccc3)c(=O)[nH]c2c1` stands 9.68%. Consider `Cc1cccc([C@@H]2[C@@H]3C(=O)N(Cc4ccccc4)C(=O)[C@@H]3[C@]3(C)C(=O)N(c4ccc(C(F)(F)F)cc4)C(=O)N23)c1`, for which the “hERG current change (%, negative = inhibition) at 10uM” value is listed as 8.43%. Consider `O=C(NC(=S)Nc1ncc(Br)cc1Br)c1ccccc1`, for which the “hERG current change (%, negative = inhibition) at 10uM” value is on record as 2.33%.

As to `O=C(c1cccn2c(=O)c3ccccc3nc12)N1CCC2(CC1)OCCO2`, the “hERG current change (%, negative = inhibition) at 10uM” value was 5.98%.

For `CCCCNC(=O)c1cc(-c2ccc(OC)cc2)on1`, the “hERG current change (%, negative = inhibition) at 10uM” value was -11.3%. As to `CCN1CCN(Cc2c(O)c(Cl)cc3c(C)cc(=O)oc23)CC1`, the “hERG current change (%, negative = inhibition) at 10uM” value is -6.86%. Under `O=C(COc1ccc(S(=O)(=O)NC2CCCCC2)cc1)NC1CC1` stands 3.4%; under `CCO[C@H]1OC(C(N)=O)=C[C@@H](C(C)(C)C)[C@@H]1CCCO`, 20.4%; under `CCc1ncc(CN2CCCC(C(=O)Nc3ccc(-c4cscn4)cc3)C2)cn1` (centres unmarked), -4.98%. The result for `Cc1ccc2nc3c(c(Nc4ccc5c(c4)OCCO5)c2c1)CCC3.Cl` reads -51.7%; that for `COC(=O)N/N=C/c1cn(CCOc2ccc(OC)cc2)c2ccccc12`, 16.8%. Under `COc1ccccc1N(Cc1ccccc1)S(=O)(=O)c1cccc(C(=O)Nc2cc(C)ccn2)c1` stands 22.6%.

For the molecule `CCOC(=O)C1CCN(c2cc3c(cc2NC(=O)c2ccc(OC)c(OC)c2)n(C)c(=O)n3C)CC1`, the “hERG current change (%, negative = inhibition) at 10uM” value stood at 21.5%. The result for `Cc1ccc(CNC(=S)NC2CCCCC2)cc1` reads -0.336%. With `CC1CC(C)CN(S(=O)(=O)c2ccc(NC(=S)NC(=O)c3ccccc3)cc2)C1` (centres unmarked), the “hERG current change (%, negative = inhibition) at 10uM” value came out at 8.01%. The result for `CCOc1ccc(NC(=O)c2c(NC(=O)CN3CCCC3)sc3c2CCC3)cc1` reads -3.84%. The result for `O=C(NC(=S)Nc1ccccc1)C1CCCCC1` reads 9.2%; that for `Cc1cccnc1NC(=O)c1ccccc1NC(=O)C(C)(C)C`, 4.23%. Take `Cc1nnc(SCC(=O)Nc2c(Cl)cccc2Cl)n(N)c1=O`: the “hERG current change (%, negative = inhibition) at 10uM” value worked out at 13.3%. Under `CCOc1ccccc1N1CCN(C(=O)NC2CCCCC2)CC1` stands -3.85%; under `COC(=O)c1cscc1NC(C)=O`, 20.7%. The result for `Cc1c(C(=O)Nc2ccccn2)sc2nc3n(c(=O)c12)CCC3` reads 7.27%; that for `CCn1c(C)nc2cc(C(=O)NNC(=S)Nc3ccc(Cl)cc3)ccc21`, 10.4%. The result for `COc1ccc(OC)c(N(CC(=O)N2CCc3ccccc3C2)S(C)(=O)=O)c1` reads -10.4%; that for `CC(C)(CNC(=O)c1cc([N+](=O)[O-])ccc1N1CCC(Cc2ccccc2)CC1)N1CCOCC1`, -48.4%.
